For one assay, the system named is HSkMC. The assay is described as follows: cytotoxicity call (relative viability < 0.9). As to conditions: 10 µM.
For the next assay, the system named is HepG2. The assay is described as follows: cytotoxicity call (relative viability < 0.9). The conditions noted are these: 10 µM.
The next assay relates to S. aureus RN4220. Kind of assay: growth inhibition call (relative growth <= 0.2). The conditions noted are these: 50 µM.

The list shows a part of the results.

For the compound `COCC#Cc1ccc2c(c1)O[C@H](CN(C)C(=O)c1ccccc1F)[C@@H](C)CN([C@H](C)CO)S2(=O)=O`, the cytotoxicity call with HSkMC and in the assay with HepG2 was “inactive” each time. Besides, in the assay with S. aureus RN4220, the growth inhibition call is “inactive”.

Regarding `COc1ccc(S(=O)(=O)Nc2ccc3c(c2)C(=O)N([C@@H](C)CO)C[C@@H](C)[C@@H](CN(C)Cc2ccc(Oc4ccccc4)cc2)O3)cc1`, in the assay on HSkMC, the cytotoxicity call is “inactive”. In the assay with HepG2, the cytotoxicity call is “active”. In addition, the growth inhibition call with S. aureus RN4220 is “inactive”.

On to `CO[C@@H]1CN(C)C(=O)c2ccc(NC(=O)Nc3ccc(F)cc3)cc2OC[C@@H](C)N(C(=O)c2ccc(F)cc2)C[C@H]1C`, for which the cytotoxicity call with HSkMC and with HepG2 was “inactive” each time. Further, the growth inhibition call in the assay on S. aureus RN4220 is “inactive”.

`C[C@@H]1CCCCO[C@H](CN(C)Cc2ccc(Cl)c(Cl)c2)[C@@H](C)CN([C@@H](C)CO)C(=O)c2cc(NC(=O)Nc3cccc4ccccc34)ccc2O1`: the cytotoxicity call in the assay on HSkMC and in the assay on HepG2 was “inactive” in each case. For the same compound, in the assay with S. aureus RN4220, the growth inhibition call is “inactive”.

For `CN1CCN(C(=O)C[C@@H]2CC[C@@H]3[C@@H](COc4ccc(NC(=O)c5ccc(F)c(F)c5)cc4C(=O)N3C)O2)CC1`, the cytotoxicity call in the assay with HSkMC and in the assay with HepG2 was “inactive” throughout. In addition, the growth inhibition call in the assay with S. aureus RN4220 is “inactive”.

For `CC(=O)c1cccc(C(F)(F)F)c1`, the cytotoxicity call in the assay on HSkMC and with HepG2 was “inactive” each time. Besides, the growth inhibition call in the assay with S. aureus RN4220 was “inactive”.

As to `NC(=O)c1ccco1`, the cytotoxicity call in the assay with HSkMC and in the assay on HepG2 was “inactive” throughout. For the same compound, in the assay with S. aureus RN4220, the growth inhibition call was “inactive”.

As for `CN1CCN(C(=O)C[C@@H]2CC[C@@H]3[C@@H](COc4ccc(NC(=O)c5cccs5)cc4C(=O)N3C)O2)CC1`, the cytotoxicity call in the assay with HSkMC and with HepG2 was “inactive” in each case. Besides, the growth inhibition call in the assay with S. aureus RN4220 was “inactive”.

Regarding `C[C@@H]1CCCCO[C@H](CN(C)Cc2ccncc2)[C@H](C)CN([C@H](C)CO)C(=O)c2cc(NC(=O)Nc3cccc4ccccc34)ccc2O1`, the cytotoxicity call in the assay with HSkMC and in the assay with HepG2 was “inactive” each time. In the assay on S. aureus RN4220, the growth inhibition call is “inactive”.

Consider `CN1C(=O)c2cc(NC(=O)C3CCC3)ccc2OC[C@H]2O[C@@H](CC(=O)NCCc3ccncc3)CC[C@@H]21`, for which the cytotoxicity call with HSkMC and in the assay on HepG2 was “inactive” in each case. Further, the growth inhibition call with S. aureus RN4220 was “inactive”.

On to `C[C@@H]1CN([C@@H](C)CO)C(=O)c2cc(NC(=O)CCC(F)(F)F)ccc2O[C@@H](C)CCCCO[C@H]1CN(C)S(=O)(=O)c1ccccc1`, for which the cytotoxicity call with HSkMC and in the assay with HepG2 was “inactive” in each case. For the same compound, the growth inhibition call in the assay on S. aureus RN4220 was “inactive”.

Regarding `Cc1ccc(S(=O)(=O)N(C)C[C@H]2Oc3ccc(NC(=O)Nc4cccc5ccccc45)cc3C(=O)N([C@@H](C)CO)C[C@@H]2C)cc1`, the cytotoxicity call in the assay with HSkMC and in the assay with HepG2 was “inactive” throughout. Also, in the assay with S. aureus RN4220, the growth inhibition call was “inactive”.

As for `C[C@@H]1CN([C@@H](C)CO)C(=O)c2cc(NC(=O)NC3CCCCC3)ccc2O[C@@H](C)CCCCO[C@H]1CN(C)CC1CC1`, the cytotoxicity call in the assay with HSkMC and in the assay with HepG2 was “inactive” throughout. In the assay with S. aureus RN4220, the growth inhibition call is “inactive”.

For the compound `CN(C)C(=O)C[C@H]1CC[C@@H](NC(=O)C2CCOCC2)[C@H](CO)O1`, the cytotoxicity call in the assay on HSkMC (human skeletal muscle cells) and in the assay with HepG2 was “inactive” in each case. For the same compound, the growth inhibition call in the assay with S. aureus RN4220 is “inactive”.

Take `C[C@@H]1CN([C@H](C)CO)C(=O)Cc2cc(NC(=O)Nc3ccc(C(F)(F)F)cc3)ccc2O[C@@H]1CN(C)C(=O)Nc1ccc(C(F)(F)F)cc1`: the cytotoxicity call with HSkMC and in the assay with HepG2 was “active” throughout. Also, the growth inhibition call with S. aureus RN4220 is “inactive”.

Consider `C[C@@H]1CN([C@H](C)CO)S(=O)(=O)c2ccc(-c3ccncc3)cc2O[C@H]1CN(C)S(=O)(=O)c1ccccc1F`, for which the cytotoxicity call with HSkMC and in the assay on HepG2 was “inactive” in each case. Also, the growth inhibition call with S. aureus RN4220 was “inactive”.

Regarding `CCOC(=O)c1c(C)cc(O)cc1O`, the cytotoxicity call with HSkMC and in the assay on HepG2 was “inactive” in each case. Moreover, in the assay with S. aureus RN4220, the growth inhibition call is “inactive”.

Turning to `C[C@H]1CN([C@@H](C)CO)C(=O)c2cccc(NC(=O)c3nc4ccccc4s3)c2O[C@H]1CN(C)S(C)(=O)=O`, the cytotoxicity call in the assay with HSkMC and with HepG2 was “inactive” throughout. Moreover, in the assay with S. aureus RN4220, the growth inhibition call is “inactive”.

Turning to `C[C@@H]1CCCCO[C@@H](CN(C)Cc2ccc(C(=O)O)cc2)[C@H](C)CN([C@@H](C)CO)C(=O)c2cc(NS(=O)(=O)c3ccc(Cl)cc3)ccc2O1`, the cytotoxicity call with HSkMC and in the assay with HepG2 was “inactive” each time. Also, the growth inhibition call in the assay on S. aureus RN4220 is “inactive”.

(Values after the antibiotic and cytotoxicity screens of Wong et al. (2023).)
